# T1: activin A (UniProt P08476 311-426)
# T1 sequence (looked up): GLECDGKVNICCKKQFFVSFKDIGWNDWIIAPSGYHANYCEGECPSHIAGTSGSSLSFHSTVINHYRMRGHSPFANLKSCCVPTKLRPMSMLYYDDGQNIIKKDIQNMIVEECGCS
# T2: BMP9 (UniProt Q9UK05 320-429)
# T2 sequence (looked up): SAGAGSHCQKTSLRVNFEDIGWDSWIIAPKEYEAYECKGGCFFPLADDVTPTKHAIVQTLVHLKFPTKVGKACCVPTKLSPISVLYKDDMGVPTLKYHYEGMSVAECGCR
# T3: GDF11 (UniProt O95390 299-407)
# T3 sequence (looked up): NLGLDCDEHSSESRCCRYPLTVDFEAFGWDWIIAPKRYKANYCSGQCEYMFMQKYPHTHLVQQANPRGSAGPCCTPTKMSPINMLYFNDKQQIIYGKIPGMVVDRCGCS
# T4: BMP10 (UniProt O95393 317-424)
# T4 sequence (looked up): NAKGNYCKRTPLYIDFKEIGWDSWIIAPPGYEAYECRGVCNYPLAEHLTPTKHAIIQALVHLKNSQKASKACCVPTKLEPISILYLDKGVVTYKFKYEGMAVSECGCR
# T5: activin B (UniProt P09529 293-407)
# T5 sequence (looked up): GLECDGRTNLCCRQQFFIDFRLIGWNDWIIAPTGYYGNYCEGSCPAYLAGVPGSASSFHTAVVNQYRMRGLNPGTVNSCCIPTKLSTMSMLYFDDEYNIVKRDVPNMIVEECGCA
# T6: GDF8 (UniProt O14793 267-375)
# T6 sequence (looked up): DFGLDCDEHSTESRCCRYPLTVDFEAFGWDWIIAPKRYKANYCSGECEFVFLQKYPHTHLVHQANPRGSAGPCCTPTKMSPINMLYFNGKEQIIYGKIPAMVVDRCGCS
# Key:
# Assay in all cases: cell-based or functional assay
# [1] = biological target: T1, activin A
# [2] = biological target: T2, BMP9
# [3] = biological target: T3, GDF11
# [4] = biological target: T1, activin A; remark: listed apart in the source
# [5] = biological target: T4, BMP10
# [6] = biological target: T5, activin B
# [7] = biological target: T3, GDF11; remark: listed apart in the source
# [8] = biological target: T6, GDF8
Binder,IC50 (ng/mL); A204 CAGA12 luciferase reporter [1] [ng/mL],IC50 (ng/mL); A204 CAGA12 luciferase reporter [2] [ng/mL],IC50 (ng/mL); A204 CAGA12 luciferase reporter [3] [ng/mL],IC50 (nM); A204 CAGA12 luciferase reporter [4] [nM],IC50 (nM); A204 CAGA12 luciferase reporter [5] [nM],IC50 (nM); A204 CAGA12 luciferase reporter [6] [nM],IC50 (nM); A204 CAGA12 luciferase reporter [7] [nM],IC50 (nM); A204 CAGA12 luciferase reporter [8] [nM]
ActRIIB(F82I)-G1Fc (Fc fusion) GRGEAETRECIYYNANWELERTNQSGLERCEGEQDKRLHCYASWRNSSGTIELVKKGCWLDDINCYDRQECVATEENPQVYFCCCEGNFCNERFTHLPEAGGPEVTYEPPPTAPTG[human IgG1 Fc and a few adjoining residues not shown],11,277,9,–,–,–,–,–
ActRIIB(F82I-N83R)-G1Fc (Fc fusion) GRGEAETRECIYYNANWELERTNQSGLERCEGEQDKRLHCYASWRNSSGTIELVKKGCWLDDIRCYDRQECVATEENPQVYFCCCEGNFCNERFTHLPEAGGPEVTYEPPPTAPTG[human IgG1 Fc and a few adjoining residues not shown],–,–,–,1.67,13.2,0.08,9.95,–
ActRIIB(F82K)-G1Fc (Fc fusion) GRGEAETRECIYYNANWELERTNQSGLERCEGEQDKRLHCYASWRNSSGTIELVKKGCWLDDKNCYDRQECVATEENPQVYFCCCEGNFCNERFTHLPEAGGPEVTYEPPPTAPTG[human IgG1 Fc and a few adjoining residues not shown],10,~5000,15,–,–,–,–,–
ActRIIB(F82K-N83R)-G1Fc (Fc fusion) GRGEAETRECIYYNANWELERTNQSGLERCEGEQDKRLHCYASWRNSSGTIELVKKGCWLDDKRCYDRQECVATEENPQVYFCCCEGNFCNERFTHLPEAGGPEVTYEPPPTAPTG[human IgG1 Fc and a few adjoining residues not shown],–,–,–,1.32,0.53,0.09,–,–
ActRIIB(F82T-N83R)-G1Fc (Fc fusion) GRGEAETRECIYYNANWELERTNQSGLERCEGEQDKRLHCYASWRNSSGTIELVKKGCWLDDTRCYDRQECVATEENPQVYFCCCEGNFCNERFTHLPEAGGPEVTYEPPPTAPTG[human IgG1 Fc and a few adjoining residues not shown],–,–,–,1.52,12.6,0.11,17.9,–
ActRIIB(K55A)-G1Fc (Fc fusion) GRGEAETRECIYYNANWELERTNQSGLERCEGEQDARLHCYASWRNSSGTIELVKKGCWLDDFNCYDRQECVATEENPQVYFCCCEGNFCNERFTHLPEAGGPEVTYEPPPTAPTG[human IgG1 Fc and a few adjoining residues not shown],15,122,11,–,–,–,–,–
ActRIIB(K55E)-G1Fc (Fc fusion) GRGEAETRECIYYNANWELERTNQSGLERCEGEQDERLHCYASWRNSSGTIELVKKGCWLDDFNCYDRQECVATEENPQVYFCCCEGNFCNERFTHLPEAGGPEVTYEPPPTAPTG[human IgG1 Fc and a few adjoining residues not shown],19,290,14,–,–,–,–,–
ActRIIB(L79H)-G1Fc (Fc fusion) GRGEAETRECIYYNANWELERTNQSGLERCEGEQDKRLHCYASWRNSSGTIELVKKGCWHDDFNCYDRQECVATEENPQVYFCCCEGNFCNERFTHLPEAGGPEVTYEPPPTAPTG[human IgG1 Fc and a few adjoining residues not shown],–,–,–,> 10,> 100,0.07,0.24,5.76
ActRIIB(L79H-F82I)-G1Fc (Fc fusion) GRGEAETRECIYYNANWELERTNQSGLERCEGEQDKRLHCYASWRNSSGTIELVKKGCWHDDINCYDRQECVATEENPQVYFCCCEGNFCNERFTHLPEAGGPEVTYEPPPTAPTG[human IgG1 Fc and a few adjoining residues not shown],–,–,–,> 100,> 100,0.15,0.36,> 10
ActRIIB(L79H-F82K)-G1Fc (Fc fusion) GRGEAETRECIYYNANWELERTNQSGLERCEGEQDKRLHCYASWRNSSGTIELVKKGCWHDDKNCYDRQECVATEENPQVYFCCCEGNFCNERFTHLPEAGGPEVTYEPPPTAPTG[human IgG1 Fc and a few adjoining residues not shown],–,–,–,–,> 100,0.1,> 100,–
